The results in this text go back to publication PMC4336329 (PLoS ONE, 2015).

Among all 310,000 compounds or so, about 14,000 (4.5%) showed an effect of 50% or more. Effects have a minus sign here. Some of the results follow.
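Further: peak tail current of the secondary pulse compared with the same well before compound.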

The assay deals with human ether-à-go-go-related gene (hERG) potassium channel (human, UniProt Q12809). Description: primary screen, population patch clamp on CHO cells stably expressing hERG.
Chain of human ether-à-go-go-related gene (hERG) potassium channel (Q12809 whole entry, looked up): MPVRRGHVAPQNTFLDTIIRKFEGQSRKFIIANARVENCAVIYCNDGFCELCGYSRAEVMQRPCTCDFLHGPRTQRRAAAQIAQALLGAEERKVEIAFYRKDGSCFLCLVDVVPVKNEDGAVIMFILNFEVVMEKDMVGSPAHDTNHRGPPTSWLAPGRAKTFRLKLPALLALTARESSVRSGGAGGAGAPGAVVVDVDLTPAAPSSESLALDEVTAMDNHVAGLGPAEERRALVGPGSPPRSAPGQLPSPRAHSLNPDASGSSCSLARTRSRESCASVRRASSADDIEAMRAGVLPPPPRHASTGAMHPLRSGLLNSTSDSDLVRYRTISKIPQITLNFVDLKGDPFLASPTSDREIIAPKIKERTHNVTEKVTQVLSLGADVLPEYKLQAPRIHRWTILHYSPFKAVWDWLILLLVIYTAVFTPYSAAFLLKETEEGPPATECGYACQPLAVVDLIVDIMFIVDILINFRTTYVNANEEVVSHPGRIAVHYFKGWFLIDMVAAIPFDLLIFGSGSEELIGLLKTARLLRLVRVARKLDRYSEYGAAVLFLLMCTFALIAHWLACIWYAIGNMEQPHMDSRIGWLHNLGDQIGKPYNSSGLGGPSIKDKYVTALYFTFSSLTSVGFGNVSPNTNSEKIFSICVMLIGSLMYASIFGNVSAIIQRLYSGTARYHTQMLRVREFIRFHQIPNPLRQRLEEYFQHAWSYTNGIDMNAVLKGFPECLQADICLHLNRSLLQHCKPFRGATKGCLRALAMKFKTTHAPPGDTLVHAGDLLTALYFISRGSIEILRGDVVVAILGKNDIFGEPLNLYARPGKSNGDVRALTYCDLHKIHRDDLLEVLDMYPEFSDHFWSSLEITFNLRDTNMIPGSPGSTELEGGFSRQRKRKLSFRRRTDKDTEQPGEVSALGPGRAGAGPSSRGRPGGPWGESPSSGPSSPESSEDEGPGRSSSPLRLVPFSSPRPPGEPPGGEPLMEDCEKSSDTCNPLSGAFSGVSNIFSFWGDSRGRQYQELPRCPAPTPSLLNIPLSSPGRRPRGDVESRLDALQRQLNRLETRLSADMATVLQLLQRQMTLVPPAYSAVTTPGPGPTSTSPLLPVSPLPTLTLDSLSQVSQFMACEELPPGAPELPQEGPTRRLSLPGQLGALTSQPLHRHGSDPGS
With `Cc1sc2nc(COC(=O)c3ccc(Cl)c(N)c3)[nH]c(=O)c2c1C`, the “hERG current change (%, negative = inhibition) at 10uM” value was found to be 4.79%.
Under `O=C(NCc1cccs1)Nc1ccc2c(c1)OCO2` stands -4.71%; under `CCOC(=O)N1CCN(CCC(=O)Nc2cc(OC)cc(OC)c2)CC1.Cl`, -2.06%.
As for `CC1(C(=O)O)CCC(C(=O)N2CCCCC2)C1(C)C` (centres unmarked), the “hERG current change (%, negative = inhibition) at 10uM” value came out at 18.9%.
Under `Cc1cc(C)cc(N(CC(=O)NC2CCCCC2)C(=O)c2ccc(C)s2)c1` stands -7.26%; under `Cc1ccc([N+](=O)[O-])c(OCC(=O)OCC(=O)c2ccccc2)c1`, 20.4%.
Under `CCOCCOC(=O)C1=C(C)NC(=O)NC1c1ccc2c(c1)OCO2` (centres unmarked) stands 13.6%.
On to `O=C(NCCOc1ccc2ccccc2c1)c1cncc(Br)c1`, for which the “hERG current change (%, negative = inhibition) at 10uM” value is recorded as 3.79%.
Under `CC1=C(C(=O)OCCBr)C(c2cccc3ccccc23)NC(=O)N1` (centres unmarked) stands 17.5%; under `CN(c1ccccc1)S(=O)(=O)c1cccc(NC(=O)CSc2nncs2)c1`, -34.4%; under `Cc1cccc(NC(=O)CSc2nnc(CSc3nc(C)cc(C)n3)n2Cc2ccco2)c1`, 16%.
Under `O=C(N/N=C/c1cccc(Br)c1)c1ccc(Br)cc1` stands 1.35%; under `CNC(=S)N(C1=NCC(c2ccc([N+](=O)[O-])cc2)S1)c1ccccc1` (centres unmarked), -14.7%; under `Cc1ccc2oc(C(=O)N(C)Cc3ccc(C)o3)c(C)c2c1`, 10.6%.
Under `O=C(Cc1ccc(Br)cc1)Nc1ccccc1N1CCCC1` stands 8.65%.
For the compound `COC(=O)C1=C(c2cccc(OC)c2OC)C[C@@H]2CC[C@H]1N2C(=O)N1CCC(O)CC1`, the “hERG current change (%, negative = inhibition) at 10uM” value amounted to 20.6%.
On to `Cc1cccc(N/C(N)=N/c2nc(CSc3ccc(Cl)cc3)cc(=O)[nH]2)c1`, for which the “hERG current change (%, negative = inhibition) at 10uM” value is reported as 19.2%.
Take `Cc1ccc(SCCNS(=O)(=O)c2ccc(F)cc2)cc1`: the “hERG current change (%, negative = inhibition) at 10uM” value is given as -15.6%.
Under `Cc1ccc(-c2noc(CCC(=O)Nc3ccc4c(c3)OCO4)n2)cc1` stands 3.68%; under `O=C(COC(=O)c1ccc2c(c1)C(=O)N(Cc1ccncc1)C2=O)Nc1cccc2ccccc12`, 6.49%; under `CC(=O)N(C)c1ccc(NC(=S)Nc2cccc3ccccc23)cc1`, 3.38%.
Under `CCN(CC)CCN1C(=O)C(=O)/C(=C(/O)c2ccc(S(=O)(=O)N3CCOCC3)cc2)C1c1ccc(Cl)cc1` (centres unmarked) stands 14.8%; under `CCc1nc2ccc(Cc3ccc4nc(CC)[nH]c4c3)cc2[nH]1`, 18.5%; under `CCN(CC)CCOc1ccccc1OC.O=C(O)C(=O)O`, -11%.
Under `Cc1ccc(Cn2c(SCC(=O)Nc3cc(C)on3)nc3ccccc3c2=O)cc1` stands 1.29%; under `Cc1cc(C)cc(N2C(=O)C3CCCN3C2=S)c1` (centres unmarked), 16.7%; under `COc1cccc(C(=O)Nc2nnc(S(=O)(=O)N3CCOCC3)s2)c1`, 1.51%.
On to `CC(C)NCC(O)COc1c(F)cc(Br)cc1F.Cl` (centres unmarked), for which the “hERG current change (%, negative = inhibition) at 10uM” value is recorded as -4.33%.
In the case of `Cc1cc(C(=O)N2CCCC2C(=O)O)c(C)o1` (centres unmarked), the “hERG current change (%, negative = inhibition) at 10uM” value was found to be 7.91%.
Under `CCc1ccc(OCC(=O)NCCOc2ccccc2)cc1` stands -8.08%.
Under `Cc1cc(SCC(=O)NC(=O)NCc2ccco2)nc2c(C)cccc12` stands 0.592%; under `Cc1ccc(-c2nc(-c3cccnc3)no2)cc1`, 1.67%; under `CCCC(=O)Nc1ccc(Cl)c(NC(=O)c2cccnc2)c1`, 12.2%.
Turning to `Cc1ccc(-c2csc(NC(=O)Cc3cccs3)n2)cc1C`, the “hERG current change (%, negative = inhibition) at 10uM” value was determined as 11.4%.
Under `Cc1cccc(Nc2nc(-c3ccccn3)cs2)n1` stands 12.9%; under `Cc1cc(C(=O)NCCc2ccc(S(N)(=O)=O)cc2)no1`, 22.8%; under `CC(=O)Nc1ccccc1NS(=O)(=O)c1ccccc1[N+](=O)[O-]`, 20%.
With `Cc1cc(C)c(S(=O)(=O)NC2CC(C)(C)NC(C)(C)C2)cc1C`, the “hERG current change (%, negative = inhibition) at 10uM” value is given as -0.3%.
As to `COc1cc(C2SCC(=O)N2c2nnc(C34CC5CC(CC(C5)C3)C4)s2)cc(OC)c1OC` (centres unmarked), the “hERG current change (%, negative = inhibition) at 10uM” value is -3.7%.
Under `Cn1c(=O)c2c(ncn2CC(=O)NC2CCCCC2)n(C)c1=O` stands 7.47%; under `CC(C)(C)c1ccc(Oc2ccc(NC(=O)c3ccco3)cn2)cc1`, -10.4%.
Regarding `COc1ccc(NC(=O)CC(C)C)c([N+](=O)[O-])c1`, the “hERG current change (%, negative = inhibition) at 10uM” value was -0.754%.
Under `CC(C)(C)n1nnnc1C(c1cccc(C#N)c1)N1CCCc2ccccc21` (centres unmarked) stands -4.89%; under `Clc1ccc(C2NCCc3[nH]cnc32)cc1` (centres unmarked), 5.73%; under `Cc1ccc(-c2csc(NC(=O)/C=C/c3ccco3)c2C(=O)O)cc1`, 13%.
Under `COc1cc(OC)nc(Oc2ccccc2/C=N/O)n1` stands 4.08%; under `CCOC(=O)CC(=O)CSc1nc(C)cc(C)c1C#N`, 1.31%.
Under `O=C(Nc1ccncc1)OCc1ccccc1` stands 14.2%.
As for `COC(=O)C1=C(c2ccc(F)cc2OCc2ccccc2)C[C@@H]2CC[C@H]1N2C(=O)NCc1ccc(F)cc1`, the “hERG current change (%, negative = inhibition) at 10uM” value is recorded as -5.76%.
Under `Cc1ccc(-c2nnn(CC(=O)N(c3cccc(F)c3)C(C(=O)NC3CCCC3)c3ccncc3)n2)o1` (centres unmarked) stands 15.5%; under `CCCNC(=O)N[C@@H](CCSC)C(=O)OC`, 11.7%; under `O=C(Nc1ccc(Oc2ccc(NC(=O)Nc3ccccc3Cl)cc2)cc1)Nc1ccccc1Cl`, 23.4%.
Turning to `CCOc1ccccc1CNCCO.Cl`, the “hERG current change (%, negative = inhibition) at 10uM” value was found to be 12.1%.
Turning to `CSc1ccc(/C=N/n2c(Cc3ccc(Br)cc3)n[nH]c2=S)cc1`, the “hERG current change (%, negative = inhibition) at 10uM” value is given as -7.71%.
Under `Cc1ccc(-c2nnc(N3CCN(C(=O)Cn4c(=O)n(C)c5ccccc54)CC3)c3ccccc23)cc1` stands -28.7%.
Under `CCOc1ccc(-n2cc(C(=O)N3CCN(C)CC3)c3cc(OC)c(OC)cc3c2=O)cc1` stands 4.98%; under `CC(C)CCN1CC(C(=O)NCCC2=CCCCC2)CC1=O` (centres unmarked), -7.57%; under `O=C(CSc1nnc(NC(=O)C2CC(=O)N(c3ccccc3)C2)s1)NCc1ccco1` (centres unmarked), 16.9%.
Under `Cc1sc2ncn(CC(=O)NCCCC(=O)N3CCN(c4ccccn4)CC3)c(=O)c2c1C` stands -11%; under `CCCCN1C(=O)c2ccc(C(=O)NC3(C)CCS(=O)(=O)C3)cc2C1=O` (centres unmarked), -14%.
As to `COc1ccc(C(=O)N2CCN(Cc3ccccc3C(F)(F)F)CC2)cc1.O=C(O)C(=O)O`, the “hERG current change (%, negative = inhibition) at 10uM” value is recorded as -1.25%.
Under `COc1ccc(Br)cc1S(=O)(=O)n1nc(C)cc1C` stands -7.5%.
Under `CCOC(=O)N1CCN(C(=O)Nc2ccc3nccnc3c2)CC1` stands 5.35%; under `CCC(=O)c1ccc(OCC(=O)Nc2nn3cnnc3s2)cc1`, 10.1%.
Under `NC(=O)CC(NC(=O)Cc1ccc(Br)cc1)c1ccc(N2CCN(c3ccccc3)CC2)c([N+](=O)[O-])c1` (centres unmarked) stands 0.863%.
Turning to `COc1cc(C(=O)N[C@@H](C)C(=O)N2CCC3(CC2)NCCc2[nH]cnc23)cc(OC)c1OC`, the “hERG current change (%, negative = inhibition) at 10uM” value came to 19.2%.
Under `COc1cc(/C=C/C(=O)OCC(=O)N2CCCc3ccccc32)ccc1OCC#N` stands -5.05%; under `Cc1ccc(SCC(=O)NCCSC(C)(C)C)cc1`, -6.91%.
Take `Cc1nc2ccc([N+](=O)[O-])cc2c(=O)n1Cc1ccc(Br)cc1`: the “hERG current change (%, negative = inhibition) at 10uM” value turned out to be 7.76%.
Under `COc1ccc(OC)c(C2C(C(C)=O)=C(O)C(=O)N2CCC(=O)O)c1` (centres unmarked) stands -2.97%; under `CCn1ncc(N(C)N)c(Cl)c1=O`, 23.5%; under `CCOC(=O)c1csc(NC(=O)CSc2nnnn2-c2ccc(OC)cc2)n1`, 7.08%.
Under `COC(=O)N/N=C/c1ccc([N+](=O)[O-])o1` stands -6.11%.
`CCC(C)(C)n1nnnc1C(c1cc2cc(C)cc(C)c2[nH]c1=O)N1CCN(C(=O)c2ccco2)CC1` (centres unmarked): the “hERG current change (%, negative = inhibition) at 10uM” value is recorded as -11.5%.
Under `CC1CCCN(CCCNC(=O)C2CCC(CNS(=O)(=O)c3cccc4nsnc34)CC2)C1` (centres unmarked) stands -6.49%.
Turning to `CCN1C(=O)/C(=C/c2cc(C)n(C)c2C)SC1=Nc1ccc(OC)cc1`, the “hERG current change (%, negative = inhibition) at 10uM” value was found to be 9.24%.
Under `CC1CCCN(C(=O)CSc2nnc(-c3c[nH]c4ccccc34)o2)C1` (centres unmarked) stands -0.849%; under `c1ccc(CCCOCCC2CO2)cc1` (centres unmarked), 6.22%.
Under `CC(=O)Nc1cc2ccc(OC(C)=O)cc2oc1=O` stands 10.4%; under `COc1ccc(-c2cc(=O)[nH]c(N3CCN(Cc4ccccc4)CC3)n2)cc1`, 10.4%; under `Cc1ccc(S(=O)(=O)CCC(=O)OCC(=O)c2ccc(F)cc2)cc1`, 6.79%.
In the case of `COc1ccc(CCNC(=O)C2CCN(C(=O)NC3CCCCC3)CC2)cc1`, the “hERG current change (%, negative = inhibition) at 10uM” value is 8.09%.
As for `O=C(O)c1ccc(N/N=C/c2ccc(C(F)(F)F)cc2)cc1.O=S(=O)(O)O`, the “hERG current change (%, negative = inhibition) at 10uM” value was determined as 0.301%.
Under `CCN(CC)S(=O)(=O)c1cccc(C(=O)N2CC(O)CC2C(=O)O)c1` (centres unmarked) stands -1.47%.
As for `NC1=NC(=Nc2ccc(S(=O)(=O)N3CCOCC3)cc2)c2ccccc21`, the “hERG current change (%, negative = inhibition) at 10uM” value is 10.4%.
Consider `O=C(Cc1sc(-c2ccccc2)nc1-c1ccccc1)Nc1ccc(Cl)cc1`, for which the “hERG current change (%, negative = inhibition) at 10uM” value is recorded as 2.51%.
Take `CC(=O)C1=C(O)C(=O)N(CCc2c[nH]c3ccccc23)C1c1cccc(O)c1` (centres unmarked): the “hERG current change (%, negative = inhibition) at 10uM” value was found to be 9.33%.
Under `CCN1CCN(C(=S)c2ccc(O)cc2)CC1` stands 11%.
Under `Fc1ccc(CSc2ccc(-c3cccs3)nn2)cc1` stands 13.2%.
